These results are taken from PubChem BioAssay AID488969 (Vanderbilt High Throughput Screening Facility, 2010).

In all, about 110,000 compounds were measured (“z-score”: median about -0.1, highest 2% from about 2 on). This is one part of the list. Active and inactive are the calls of the source.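 Rule for the calls: active = z-score in the third read window above 3 or below -3; inactive = the rest.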

In the assay the target is Metabotropic glutamate receptor 8 (Rattus norvegicus) (UniProt P70579). As to the kind of experiment: mGluR8 Gi/Go-coupled signaling modulation – cell-based, rat, thallium flux, HTS, primary screen (AID 488969). The following applies: HEK293 rat mGluR8, GIRK (G protein-gated inwardly rectifying potassium channel) thallium flux, FluoZin2; at 10 µM; stronger effect = higher value; submaximal glutamate (EC20) added with thallium.
UniProt P70579, sequence (P70579 whole entry, looked up): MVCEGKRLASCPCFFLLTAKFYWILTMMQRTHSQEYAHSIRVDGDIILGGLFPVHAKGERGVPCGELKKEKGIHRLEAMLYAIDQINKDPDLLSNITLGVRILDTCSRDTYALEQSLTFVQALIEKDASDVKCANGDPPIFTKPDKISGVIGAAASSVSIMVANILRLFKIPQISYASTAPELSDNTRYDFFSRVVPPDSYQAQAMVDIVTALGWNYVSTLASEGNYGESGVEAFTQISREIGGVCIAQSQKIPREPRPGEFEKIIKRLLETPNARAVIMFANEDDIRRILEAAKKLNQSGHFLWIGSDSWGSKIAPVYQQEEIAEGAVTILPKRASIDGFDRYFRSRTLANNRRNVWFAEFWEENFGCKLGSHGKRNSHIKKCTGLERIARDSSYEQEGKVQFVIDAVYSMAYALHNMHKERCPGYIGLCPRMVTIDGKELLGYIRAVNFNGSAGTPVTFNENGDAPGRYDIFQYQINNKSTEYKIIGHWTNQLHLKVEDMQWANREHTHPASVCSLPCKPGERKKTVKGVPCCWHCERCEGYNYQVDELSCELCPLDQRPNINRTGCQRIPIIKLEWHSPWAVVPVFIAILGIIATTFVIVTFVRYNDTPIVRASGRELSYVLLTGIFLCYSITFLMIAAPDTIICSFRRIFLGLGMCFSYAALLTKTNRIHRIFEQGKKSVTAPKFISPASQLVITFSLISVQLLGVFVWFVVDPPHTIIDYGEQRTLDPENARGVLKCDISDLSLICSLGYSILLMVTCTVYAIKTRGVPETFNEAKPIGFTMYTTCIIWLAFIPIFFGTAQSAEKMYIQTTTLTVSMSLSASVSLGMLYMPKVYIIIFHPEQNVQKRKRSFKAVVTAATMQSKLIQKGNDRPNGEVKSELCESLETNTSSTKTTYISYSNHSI
Turning to `CNc1nc(SCc2ccc(C)cc2)nc2c1CCCC2`, the z-score was 0.159. In the case of `CSC(=NCc1cccnc1)NS(=O)(=O)c1cccs1` it was 1.2; in that of `O=C(Nc1ccc(S(=O)(=O)N2CCCCCC2)cc1)c1ccco1`, -0.549. The compound `COc1ccccc1-n1c(SCC(=O)NC(C)(C)C)nc(O)c(Cc2ccccc2)c1=O` came in with a z-score of -0.0604. `CC(C)(C)NC(=O)C(=O)NNC(=O)COc1ccc(Br)cc1`: the z-score was 1.89. On to `CCCS(=O)(=O)N1CCN(Cc2ccco2)CC1`, for which the z-score was found to be 0.471. In the case of `CCOC(=O)c1cnn(-c2ccc(C)cc2)c1N` it was -0.0833; in that of `O=C(/C=C/c1cccs1)NCc1cccnc1`, -0.257.

In turn, `O=C(Nc1cccc(-c2cnc3ccccc3n2)c1)c1cccc(NC(=O)c2ccco2)c1` returned a z-score of -0.268. The value for `CCCSc1nc2c(c(=O)[nH]c(=O)n2C)n1CCc1ccccc1` was 0.364; that for `Cc1nc2ccccc2nc1OCC(=O)NCC(F)(F)F` was 0.894. Turning to `COc1ccc(CCN2C(=O)CC(Sc3ncccc3C(=O)O)C2=O)cc1OC` (centres undefined), the z-score is -0.00798. The value for `CCCN(CCC)C(=O)CC(c1ccccc1)c1ccc(C)cc1O` (centres undefined) was -0.601; that for `O=C(NCCc1c[nH]c2ccccc12)c1cc2sccc2n1Cc1ccccc1` was -0.216; that for `COCc1[nH][nH]c(=O)c1C=Nc1ccc(Oc2ccccc2)cc1` was -0.0851. The value for `COc1cc(C2C3=C(CCCC3=O)Nc3[nH]n(-c4ccccc4)c(=O)c32)ccc1O` (centres undefined) was -0.337. In the case of `CCOC(=O)c1cccc(N/C=C/C(=O)c2ccc(OC)c(OC)c2)c1` it was -0.632; in that of `Cc1ccc(C(=O)N/N=C2\CCc3ccccc32)c(C)c1`, -1.24. In turn, `COc1ccc(C(=O)NNc2ccccc2)cc1` registered a z-score of -0.0891. In the case of `COc1ccc(CSc2nc(CSC)cc(N3CCOCC3)n2)cc1`, the z-score was found to be 0.264. The value for `O=C(CCN1C(=O)C2C3C=CC(C3)C2C1=O)N1CCN(c2cccc(Cl)c2)CC1` (centres undefined) was -0.0338. In the case of `Cc1cc(C)nc(N(C#N)CN2C(=O)c3ccccc3C2=O)n1` it was -0.507; in that of `O=C(NCc1ccccc1)C(c1ccncc1)N(C(=O)c1csnn1)C1CC1` (centres undefined), -0.2. In the case of `CSc1nc(C)cc(OCC(=O)n2nc(C)cc2C)n1` it was -0.0686; in that of `COCCCNC(=O)c1ccc(NS(C)(=O)=O)cc1`, -0.421.

Turning to `COC(=O)c1nc(NC(=O)C(C)C)n[nH]1`, the z-score was found to be 0.0584.

With `O=C(CSc1nnc(COc2ccc(Cl)cc2)n1Cc1ccco1)c1ccccc1F`, the z-score was -0.269. Compound `Cn1c(NC(=O)C[n+]2cc(-c3ccccc3)n3c2CCC3)cc(=O)n(C)c1=O` came in with a z-score of -0.0764. In the case of `COc1ccccc1C(c1nnnn1C(C)(C)C)N1CCN(Cc2ccncc2)CC1` (centres undefined) it was -0.332; in that of `Fc1ccccc1NC(=S)N/N=C/c1ccccc1Br`, active: 13.4. The value for `COCCNc1nnc(SCC(=O)Nc2sc3c(c2C(=O)c2ccccc2)CCCC3)s1` was -0.575; that for `CCOC(=O)c1cc2c(=O)n3ccccc3nc2n(Cc2ccco2)c1=NC(=O)c1cccnc1` was -0.775.

In turn, `COc1cc(S(=O)(=O)NCCN2CCOCC2)c(OC)cc1Cl` came in with a z-score of -0.41. As to `O=C(c1ccc(N2CCN(C3CC(=O)N(c4ccc(F)cc4)C3=O)CC2)cc1)c1cccnc1` (centres undefined), the z-score was -0.22. The value for `CCOc1cc(C2NN=C(c3ccc(C)cc3)S2)ccc1O` (centres undefined) was active: 8.33; that for `Cn1cc(Cl)nc1C(O)c1ccccc1` (centres undefined) was -0.173. The value for `Cn1c(CNc2nc(-c3ccccc3)cs2)nnc1SCC(=O)N1CCc2ccccc21` was -0.0924; that for `CCS(=O)(=O)N1Cc2ccccc2CC1C(=O)Nc1nnc(SCc2ccc(C#N)cc2)s1` (centres undefined) was -0.072; that for `Nc1c(-c2ccccc2)n[nH]c1-c1ccccc1` was -0.178.

Turning to `O=c1[nH]c2ccsc2c(=O)n1-c1ccc(F)c(Cl)c1`, the z-score stood at 0.0996. `COc1ccc(NC(=S)c2ccccc2)cc1` showed a z-score of -0.0621. The value for `N#C/C(=C/c1ccc(N2CCCCC2)o1)C(=O)NCCc1c[nH]c2ccccc12` was -0.0611. In turn, `Cc1cc(C(=O)CN2C(=O)NC3(CCCc4sccc43)C2=O)c(C)n1-c1ccc(Cl)cc1` (centres undefined) showed a z-score of -0.138.

In turn, `Cc1ccc(SCCCCN2C(=O)NC(C)(C)C2=O)cc1` had a z-score of -0.428. Compound `Nc1nc2n(n1)C(c1cccs1)CC(c1ccccc1)N2` (centres undefined) gave a z-score of -0.0568. The value for `COCCCn1c(SCC(=O)Nc2sc3c(c2C#N)CCCC3)nnc1-c1ccncc1` was -0.35; that for `O=C(c1ccccc1CCc1ccccc1)N1CCOCC1` was 0.192; that for `CCC(C)NC(=O)c1ccccc1NC(=O)c1ccc(CSc2ccc(C)cc2)cc1` (centres undefined) was -0.104. The value for `CCn1c(SC)nnc1C1CCN(S(=O)(=O)c2ccc(OC)cc2)CC1` was 0.44; that for `CC(C(=O)Nc1ccc2c(c1)OCCO2)c1ccc([N+](=O)[O-])cc1` (centres undefined) was -0.332; that for `C=CCSc1nnc(CCCCCN2C(=O)c3cccc4cccc(c34)C2=O)o1` was -0.269. Compound `COc1ccc(C(=O)NC(C)c2nnc(SCC(=O)Nc3nc4ccccc4s3)n2C)cc1` (centres undefined) came in with a z-score of 0.843. The compound `CCNC(=O)COC(=O)/C=C/c1ccccc1[N+](=O)[O-]` registered a z-score of -0.0333. In the case of `COCC(=O)N(Cc1cc2ccccc2[nH]c1=O)c1ccc(OC)cc1`, the z-score is -1.49. `OC(CNCc1ccco1)Cn1c2ccc(Br)cc2c2cc(Br)ccc21` (centres undefined) came in with a z-score of 0.138.

`CCN(CC)CCN1C(=O)C(O)=C(C(=O)c2cccs2)C1c1ccc(C)o1` (centres undefined) had a z-score of -0.375. The value for `COc1cc(/C=C/C(=O)c2ccc(NS(=O)(=O)c3ccc(C)cc3)cc2)ccc1OC(F)F` was -0.188. `Nc1c(C(=O)Nn2cnnc2)cc([N+](=O)[O-])cc1[N+](=O)[O-]` gave a z-score of -0.59. In turn, `Cn1c(=O)c(=O)n(C)c2cc(S(=O)(=O)NCCc3ccccc3)ccc21` had a z-score of -0.321.

In the case of `COC(=O)C(Cc1cnc(Cl)s1)(C(=O)OC)c1ccc(C(F)(F)F)cc1[N+](=O)[O-]`, the z-score is -0.16.

In turn, `Cc1noc(C)c1S(=O)(=O)N(CC(=O)NCc1ccc2c(c1)OCO2)c1ccc(C(C)C)cc1` had a z-score of -0.616. Consider `Cc1nnc(-c2ccccc2)c(=O)n1/N=C/c1c(O)ccc2ccccc12`, for which the z-score was -1.38.

For the compound `CCCCOC(=O)Nc1ccc(S(=O)(=O)Nc2nc(C)cc(C)n2)cc1`, the z-score is -0.246. In the case of `Cc1nn(Cc2ccc(Cl)cc2)c(C)c1NC(=O)C(c1ccccc1)c1ccccc1`, the z-score was -0.308. The value for `CCCn1c(SCC(=O)N2CCCc3ccccc32)nnc1-c1ccccn1` was -0.0622. Regarding `c1csc(C(c2nnnn2C2CCCCC2)N2CCCC3(CCCCC3)C2)c1` (centres undefined), the z-score worked out at 0.522. In the case of `CC(C)c1[nH]c(=O)c(C#N)c2c1COC(C)(C)C2` it was 0.293; in that of `COc1cccc(C2=CC(c3ccc(N(C)C)cc3)n3ncnc3N2)c1` (centres undefined), -0.173; in that of `CCOC(=O)c1ccc(N2C(=O)c3n[nH]c(C)c3C2c2ccco2)cc1` (centres undefined), -1.12.
